# Assay results: publication PMC11995724, “Antibiotic target discovery by integrated phenotypic and activity-based profiling of electrophilic fragments” (Cell chemical biology, 2025)
# The whole screen tested about 3,200 compounds, of which about 75 (2%) showed an effect of 50% or more. The list shows a part of the results.
# System: T1, S. aureus MSSA476
# T1 construct: MSSA476
# Parameters: species or system S. aureus MSSA476 (TSB) or V. cholerae SAD30 (LB); 384-well bacterial growth screen at 25 uM, OD600 relative to DMSO control
# Conditions: relative growth, OD600, TSB; 25 µM; inhibitor
row,Structure (SMILES),% of control remaining
1,"Cc1ccc(C(=O)C(C)Cl)cc1 (stereo not drawn) [10-F20, 2-chloro-1-(4-methylphenyl)propan-1-one]",110.938%
2,"Cc1ccc(NC(=O)C(C#N)=Cc2ccc(C)s2)cc1 [8-K13, 2-cyano-N-(4-methylphenyl)-3-(5-methylthiophen-2-yl)prop-2-enamide]",94.6058%
3,"CC(Cl)C(=O)NCc1nc2cccnc2n1C (stereo not drawn) [7-O17, 2-chloro-N-({3-methyl-3H-imidazo[4,5-b]pyridin-2-yl}methyl)propanamide]",101.727%
4,"COc1ccc(N2C(=O)C=CC2=O)c(OC)c1 [10-J15, 1-(2,4-dimethoxyphenyl)-2,5-dihydro-1H-pyrrole-2,5-dione]",121.875%
5,"C=CCNC(=O)C(C#N)=Cc1sccc1C [9-P07, 2-cyano-3-(3-methylthiophen-2-yl)-N-(prop-2-en-1-yl)prop-2-enamide]",115.955%
6,"CC(Cl)C(=O)NC(c1cccc(C(F)(F)F)c1)c1nnc[nH]1 (stereo not drawn) [7-M17, 2-chloro-N-[(4H-1,2,4-triazol-3-yl)[3-(trifluoromethyl)phenyl]methyl]propanamide]",109.576%
7,"COC(=O)c1c(NC(=O)CCl)sc(Cl)c1-c1ccccc1 [4-E20, methyl 5-chloro-2-(2-chloroacetamido)-4-phenylthiophene-3-carboxylate]",117.008%
8,"N#CC(=Cc1ccco1)C(=O)NCc1ccc(-c2cccnc2)cc1 [9-F16, 2-cyano-3-(furan-2-yl)-N-{[4-(pyridin-3-yl)phenyl]methyl}prop-2-enamide]",69.8127%
9,"C=CC(=O)N(CC)CC(=O)N1CCNC(=O)C1c1cccs1 (stereo not drawn) [3-G07, N-ethyl-N-{2-oxo-2-[3-oxo-2-(thiophen-2-yl)piperazin-1-yl]ethyl}prop-2-enamide]",93.6874%
10,"COc1cc(C=C(C#N)C(=O)Nc2ccc(Cl)cc2)cc(OC)c1 [8-K16, N-(4-chlorophenyl)-2-cyano-3-(3,5-dimethoxyphenyl)prop-2-enamide]",107.552%
11,"CC(NC(=O)C(C#N)=Cc1cc(F)ccc1F)c1ccccc1 (stereo not drawn) [8-O06, 2-cyano-3-(2,5-difluorophenyl)-N-(1-phenylethyl)prop-2-enamide]",104.564%
12,"C=CC(=O)N1CCCC(c2nc(N(C)C)no2)C1 (stereo not drawn) [3-A13, 1-{3-[3-(dimethylamino)-1,2,4-oxadiazol-5-yl]piperidin-1-yl}prop-2-en-1-one]",95.4288%
